Source: PubChem BioAssay AID1768 (National Center for Advancing Translational Sciences (NCATS), 2009)
Several values for one entry are separate records, joined by “and”; a condition that tells them apart may be missing. Identical values can stand only once. Among all 270,000 compounds or so, about 620 (0.23%) were called active. The inconclusive results got no clear call from the source; some entries with a clear call stand among them for comparison. Calls follow the shape of the dose curve; as a rule, active = well fitted inhibition curve with a large enough effect in the polarisation, with a control signal flat (not every such curve was filed as active); inconclusive = small, poorly fitted or top-dose-only effect, or effect the other way, or a change in a side signal; inactive = no such curve, though single readings can be large or run the other way; the % refers to the polarisation. A potency beside an inconclusive call is a rough fit, not a confirmed value. A note “side channel” means that the fit belongs to a control or component signal, not to the main read-out.

target: Menin (Homo sapiens) (UniProt O00255); experiment: qHTS Assay for Inhibitors Targeting the Menin-MLL Interaction in MLL Related Leukemias: Competition With Texas Red Labeled MLL-derived Mutant Peptide; conditions: fluorescence polarization; series mostly up to 61.6 µM
Chain of UniProt O00255 (O00255 whole entry, looked up): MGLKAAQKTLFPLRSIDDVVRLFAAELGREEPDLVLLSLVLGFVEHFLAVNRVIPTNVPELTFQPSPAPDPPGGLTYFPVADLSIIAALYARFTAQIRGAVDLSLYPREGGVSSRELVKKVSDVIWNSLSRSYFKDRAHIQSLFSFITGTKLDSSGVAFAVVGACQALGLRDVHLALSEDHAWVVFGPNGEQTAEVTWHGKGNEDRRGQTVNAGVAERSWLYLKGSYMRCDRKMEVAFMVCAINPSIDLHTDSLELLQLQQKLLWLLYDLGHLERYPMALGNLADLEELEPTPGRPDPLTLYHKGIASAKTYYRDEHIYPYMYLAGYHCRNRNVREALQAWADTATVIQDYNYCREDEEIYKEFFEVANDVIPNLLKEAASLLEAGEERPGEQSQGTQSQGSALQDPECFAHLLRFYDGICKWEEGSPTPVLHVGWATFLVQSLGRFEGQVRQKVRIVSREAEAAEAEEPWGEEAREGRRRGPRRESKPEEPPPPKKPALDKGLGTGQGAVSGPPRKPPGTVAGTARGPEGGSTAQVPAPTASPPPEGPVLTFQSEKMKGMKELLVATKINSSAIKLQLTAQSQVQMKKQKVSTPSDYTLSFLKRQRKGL
Potency is read from the fitted curve at half-maximal effect; tags tell the direction and shape of the fitted curve or compound fluorescence and quenching.

Structure (SMILES)	Potency
O=C(Oc1ccc(-c2nnco2)cc1)N1CCCCC1	inconclusive: 14.1 µM [inhibitor, partial curve]
COC(=O)[C@H]1C[C@@H]1[C@H](NP(=O)(c1ccccc1)c1ccccc1)c1ccccc1	inactive
Clc1ccc(COC(Cn2ccnc2)c2ccc(Cl)cc2Cl)c(Cl)c1 (stereo not given)	inconclusive: 12.6 µM [fluorescent, side channel, partial curve] and inconclusive: 3.55 µM [fluorescent, side channel, partial curve]
CCN(CC)c1ccc(CN2CC=C(c3ccc(F)cc3)CC2)cc1	inactive
CCCCCC[C@H]1C(=O)O[C@H](C)[C@H](NC(=O)c2cccc(NC=O)c2O)C(=O)O[C@@H](C)[C@H]1OC(=O)CC(C)C	inconclusive: 11.2 µM [quencher, side channel, partial curve]
CC1CCN(S(=O)(=O)c2ccc(NN=C(C#N)C#N)cc2)CC1	inconclusive: 10 µM [quencher, side channel, partial curve]
CN1CCN(C2=Nc3cc(Cl)ccc3Nc3ccccc32)CC1	inconclusive: 2.24 µM [inhibitor, full curve]
CN(C)c1ccc([P+](=O)c2ccc(N(C)C)cc2)cc1	inconclusive: 22.4 µM [fluorescent, side channel, single point]
Cc1c(C(=O)N2CCC(Cc3ccccc3)CC2)sc2ncnc(N3CCC(C)CC3)c12	inconclusive: 6.31 µM [fluorescent, side channel, partial curve]
Cc1cc(C(=O)CN2C(=O)c3ccccc3C2=O)c(C)n1C1CC1	inconclusive: 12.6 µM [fluorescent, side channel, partial curve]
N#C/C(=C\c1ccc(N2CCCCC2)c([N+](=O)[O-])c1)c1nn(-c2ccccc2)c(N)c1C#N	inconclusive: 31.6 µM [quencher, side channel, single point]
NS(=O)(=O)c1ccc(CNC(=O)COc2ccc3c4c(c(=O)oc3c2)CCCC4)cc1	inconclusive: 39.8 µM [fluorescent, side channel, single point]
O=c1[nH]c(=S)[nH]c(O)c1/C=C1/C=c2ccccc2=N1	inactive
CCCCC/C=C\C/C=C\C/C=C\C/C=C\CCCC(=O)NCCc1ccc(O)c(O)c1	inconclusive: 39.8 µM [quencher, single point]
O=C(Nc1ccc(Cl)c(Cl)c1)O/N=C/c1ccncc1	inconclusive: 39.8 µM [quencher, side channel, single point]
CCN(CC)CCCOC(=O)C(OC(C)C)(c1ccccc1)c1ccccc1	inconclusive: 3.16 µM [inhibitor, full curve]
c1ccc(CN2CCc3nc4ccccc4cc3C2)cc1	inconclusive: 14.1 µM [fluorescent, side channel, partial curve]
COc1ccc(OC)c(C(O)C(C)N)c1 (stereo not given)	inconclusive: 28.2 µM [inhibitor, partial curve]

Structure (SMILES)	Potency
COc1cccc(Oc2c(C)oc3cc(OC(=O)N(C)C)ccc3c2=O)c1	inconclusive: 14.1 µM [fluorescent, side channel, partial curve]
O=C(OCC1O[C@@H](OC(=O)c2cc(O)c(O)c(O)c2)[C@@H](OC(=O)c2cc(O)c(O)c(O)c2)[C@@H](OC(=O)c2cc(O)c(O)c(O)c2)[C@@H]1OC(=O)c1cc(O)c(O)c(O)c1)c1cc(O)c(O)c(O)c1 (stereo not given in full)	inconclusive: 39.8 µM [quencher, side channel, single point]
O=c1cc(-c2ccc(O)c(O)c2)oc2cc(O)cc(O)c12	inconclusive: 14.1 µM [quencher, side channel, partial curve] and inconclusive: 31.6 µM [quencher, side channel, partial curve] and inconclusive: 20 µM [quencher, single point]
Cc1ccc(-n2c(/C=C/c3ccccn3)nc3ccccc3c2=O)cc1	inconclusive: 35.5 µM [fluorescent, side channel, single point]
c1ccc2c(CCNC3CCCCC3)c[nH]c2c1	inconclusive: 10 µM [inhibitor, partial curve]
Clc1ccc2c(c1)C(c1ccccc1Cl)=NCc1nnc(N3CCN(CCOc4ccccc4)CC3)n1-2	inconclusive: 14.1 µM [fluorescent, side channel, partial curve]
CC1(C)C(C(=O)O)N2C(=O)CC2S1(=O)=O (stereo not given)	inconclusive: 14.1 µM [inhibitor, partial curve]
CCOP(=O)(c1ccc(N(C)C)cc1)C(O)c1c(Cl)cccc1Cl (stereo not given)	inconclusive: 0.708 µM [inhibitor, full curve, poor fit]
C[N+]12CCC(CC1)C(=C(c1ccccc1)c1ccccc1)C2	inactive
CN1/C(=C\C=Nc2ccccc2)C(C)(C)c2ccccc21	inconclusive: 28.2 µM [fluorescent, side channel, partial curve]
CCCCOCCCn1c(N)c(C(=O)OC(C)COC)c2nc3ccccc3nc21 (stereo not given)	inconclusive: 20 µM [inhibitor, partial curve, poor fit]
CCNC(=O)O/N=C(\C)c1sc(-c2ccccc2)nc1C	inconclusive: 12.6 µM [inhibitor, partial curve, poor fit]
COc1cccc(CN2CC=C(c3ccc(F)cc3)CC2)c1	inconclusive: 22.4 µM [inhibitor, partial curve]
Cc1cc2ccccc2n1CCNC(=O)Cc1ccccc1	inconclusive: 28.2 µM [inhibitor, single point]
COc1ccc(CNC(=O)C(NC(C)=O)C(C)C)cc1OC (stereo not given)	inconclusive: 39.8 µM [inhibitor, single point]
COc1cccc(Oc2coc3cc(OC(=O)N(C)C)ccc3c2=O)c1	inactive
Cc1ccccc1-c1nc(CS(=O)CC(=O)N2CCC3(CC2)OCCO3)c(C)o1 (stereo not given)	inconclusive: 2.82 µM [inhibitor, partial curve]
